In the supplement of paper PMC3334620:
In all, about 33,000 sequences were measured (“E-score (-0.5 to 0.5)”: median about -0.016, highest 2% from about 0.32 on). The list shows a part of the results.

What follows are sequences tested against T1, Stp1 (UniProt B3LFK1) (assay: PBM E-score (8-mer binding enrichment) (E-score (-0.5 to 0.5)); higher = stronger / more preferred TF binding; most listed sequences are background and not binding sites). Conditions: protein concentration: 200 nM; construct: GST-full length.
T1 sequence: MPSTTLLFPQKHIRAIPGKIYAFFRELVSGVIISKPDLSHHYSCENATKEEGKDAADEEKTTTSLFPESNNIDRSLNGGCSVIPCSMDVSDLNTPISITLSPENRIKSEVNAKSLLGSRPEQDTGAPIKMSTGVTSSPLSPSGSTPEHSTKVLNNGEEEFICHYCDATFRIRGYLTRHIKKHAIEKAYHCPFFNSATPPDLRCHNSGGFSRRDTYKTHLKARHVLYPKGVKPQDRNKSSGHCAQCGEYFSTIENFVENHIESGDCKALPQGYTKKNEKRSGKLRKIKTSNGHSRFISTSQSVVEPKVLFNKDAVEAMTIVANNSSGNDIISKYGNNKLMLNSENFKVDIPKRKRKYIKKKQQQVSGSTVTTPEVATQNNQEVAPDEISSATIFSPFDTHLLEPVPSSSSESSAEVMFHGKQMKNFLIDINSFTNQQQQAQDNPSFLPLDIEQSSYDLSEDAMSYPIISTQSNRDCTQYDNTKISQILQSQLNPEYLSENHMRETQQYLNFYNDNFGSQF
How it was run: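 Yeast transcription factors, full-length or as DNA-binding domains, were expressed with a GST tag using PURExpress in vitro transcription/translation. At about 100-200 nM they were applied to universal all-10-mer Agilent arrays, double-stranded by primer extension on fresh or once-stripped slides. Fluorescent anti-GST detected bound protein, and masliner normalised the scans. E-scores for ungapped eight-base words, pooled with reverse complements, came from the Universal PBM Analysis Suite.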
In the case of CGGAAGAA, the “PBM E-score” value was -0.0809.
For GCCCTTGA, the “PBM E-score” value was 0.0731.
In the case of CTACTGCC, the “PBM E-score” value was 0.0523.
CAACCTCA was tested, and the “PBM E-score” value was -0.103.
With CAGCATAC the “PBM E-score” value was -0.0173.
With CCCCACTA the “PBM E-score” value was -0.185.
For AGACGCGG, the “PBM E-score” value was 0.247.
GAGGTGCC was tested, and the “PBM E-score” value was 0.233.
With GGGAATGA the “PBM E-score” value was 0.0222.
In the case of TACGACTA, the “PBM E-score” value was -0.00785.
ATCTATTG was tested, and the “PBM E-score” value was 0.0947.
For GCCACTTA, the “PBM E-score” value was 0.104.
ACGGGCTC was tested, and the “PBM E-score” value was -0.225.
For GAACCGTC, the “PBM E-score” value was -0.11.
In the case of AGGCACAA, the “PBM E-score” value was 0.288.
With AGAGATCT the “PBM E-score” value was -0.0664.
ACGGTTCA was tested, and the “PBM E-score” value was -0.228.
In the case of GAGTTACC, the “PBM E-score” value was -0.0876.
With GCGCGACA the “PBM E-score” value was 0.225.
In the case of GCACCAAC, the “PBM E-score” value was 0.114.
For CAGAGCTC, the “PBM E-score” value was -0.308.
CCTGCGTC was tested, and the “PBM E-score” value was -0.316.
CCGGAGCG was tested, and the “PBM E-score” value was -0.0294.
For AACAAACA, the “PBM E-score” value was 0.161.
GCCAACGA was tested, and the “PBM E-score” value was 0.0454.
For AAATTTAG, the “PBM E-score” value was 0.142.
With CAACGGGC the “PBM E-score” value was 0.112.
ACAAGTTG was tested, and the “PBM E-score” value was -0.014.
GACGGTCC was tested, and the “PBM E-score” value was -0.26.
GATGTTCA was tested, and the “PBM E-score” value was -0.0819.
For AAACGGAG, the “PBM E-score” value was 0.18.
For CAACTTAG, the “PBM E-score” value was 0.13.
In the case of GATTGTAA, the “PBM E-score” value was 0.0589.
With ACGACGAG the “PBM E-score” value was -0.191.
With AAGCTATT the “PBM E-score” value was -0.0687.
For CTGTTATA, the “PBM E-score” value was 0.125.
With TGCATCCA the “PBM E-score” value was -0.0335.
For TCAGGGCA, the “PBM E-score” value was 0.0232.
ACTACGCT was tested, and the “PBM E-score” value was -0.192.
For GCACACCC, the “PBM E-score” value was -0.179.
With CTACGCCA the “PBM E-score” value was 0.00095.
CCGAAGTC was tested, and the “PBM E-score” value was -0.0338.
With ATGGGCGC the “PBM E-score” value was 0.134.
For GGTAAGCA, the “PBM E-score” value was -0.0428.
With ACGGGTTG the “PBM E-score” value was -0.0319.
With ATTAGAAC the “PBM E-score” value was 0.0669.
For ACATGAGA, the “PBM E-score” value was 0.00086.
In the case of AAACCCCT, the “PBM E-score” value was -0.284.
For AGCACGCA, the “PBM E-score” value was -0.127.
For TCTGTTAA, the “PBM E-score” value was 0.044.
GACTAAGC was tested, and the “PBM E-score” value was -0.025.
For GCCTTGCC, the “PBM E-score” value was 0.316.
CAGCTACA was tested, and the “PBM E-score” value was -0.0624.
GAGTATAC was tested, and the “PBM E-score” value was -0.0177.
GTGCCCAA was tested, and the “PBM E-score” value was 0.193.
In the case of ACGGTCTG, the “PBM E-score” value was -0.152.
In the case of CAATACGA, the “PBM E-score” value was 0.143.
In the case of AATCTGAG, the “PBM E-score” value was -0.0755.
CTTTAAAA was tested, and the “PBM E-score” value was 0.0455.
ATTGCAAA was tested, and the “PBM E-score” value was 0.0783.
ACCATTCG was tested, and the “PBM E-score” value was -0.00559.
In the case of CGTAAGTC, the “PBM E-score” value was -0.066.
In the case of CAATCAGG, the “PBM E-score” value was 0.105.
TATGACAA was tested, and the “PBM E-score” value was 0.0978.
For CAAGCTTA, the “PBM E-score” value was 0.0207.
In the case of GACTGTCC, the “PBM E-score” value was -0.243.
In the case of GCCGGCCC, the “PBM E-score” value was -0.00182.
For GGGAAAAC, the “PBM E-score” value was -0.12.
GGGACAAC was tested, and the “PBM E-score” value was -0.104.
For CGTTAATA, the “PBM E-score” value was 0.0752.
With ATTAAGTA the “PBM E-score” value was -0.0251.
In the case of CGGTTAGC, the “PBM E-score” value was -0.119.
GACCCTGC was tested, and the “PBM E-score” value was -0.234.
In the case of AGGGATAA, the “PBM E-score” value was -0.0917.
GCCGCCGA was tested, and the “PBM E-score” value was 0.316.
For ATTCACGA, the “PBM E-score” value was 0.0641.
For CGGTAGGA, the “PBM E-score” value was -0.15.
With ACTAGTCT the “PBM E-score” value was -0.161.
In the case of AATGGAGA, the “PBM E-score” value was 0.00782.
In the case of AGGCAAAG, the “PBM E-score” value was 0.0916.
ATTTGTTG was tested, and the “PBM E-score” value was 0.216.
In the case of AAACATAA, the “PBM E-score” value was 0.0445.
In the case of CCGGTCGA, the “PBM E-score” value was -0.207.
In the case of TAAACATA, the “PBM E-score” value was 0.143.
In the case of CCCACTTC, the “PBM E-score” value was -0.237.
ATATCCAG was tested, and the “PBM E-score” value was 0.145.
ATCTACAT was tested, and the “PBM E-score” value was 0.0378.
In the case of GGGTACGA, the “PBM E-score” value was -0.26.
ATAATCCA was tested, and the “PBM E-score” value was 0.0262.
For ATAGGGAG, the “PBM E-score” value was -0.333.
For ATCCTACG, the “PBM E-score” value was -0.0808.
CGTGCCGA was tested, and the “PBM E-score” value was 0.352.
With AGGGCGTA the “PBM E-score” value was 0.0802.
In the case of GCACCGGC, the “PBM E-score” value was 0.117.
For TACAAGTA, the “PBM E-score” value was -0.141.
For ACGGCCAG, the “PBM E-score” value was -0.06.
With AAAGTCAA the “PBM E-score” value was -0.0876.
For AGTTAAAC, the “PBM E-score” value was 0.0475.
For AACCATGC, the “PBM E-score” value was 0.103.
CTGCCAAC was tested, and the “PBM E-score” value was -0.149.
ACCCCGTC was tested, and the “PBM E-score” value was -0.239.
With ACTTAGGC the “PBM E-score” value was -0.0486.
With TAAATGAA the “PBM E-score” value was 0.0329.
With GGCCCAAC the “PBM E-score” value was -0.129.
For ACCACATG, the “PBM E-score” value was 0.00989.
With CCGGAACA the “PBM E-score” value was -0.0245.
With GCTCTGAC the “PBM E-score” value was -0.225.
With ACAACGTA the “PBM E-score” value was 0.063.
ACACCGCC was tested, and the “PBM E-score” value was -0.0718.
With CCTTATTC the “PBM E-score” value was -0.0435.
In the case of CTGAAAAA, the “PBM E-score” value was -0.0424.
In the case of AGAACGGG, the “PBM E-score” value was -0.129.
With AGGGTTTC the “PBM E-score” value was -0.0824.
With CGGTTCCA the “PBM E-score” value was -0.0473.
GCTGTCAC was tested, and the “PBM E-score” value was -0.146.
For GATCACAC, the “PBM E-score” value was -0.00065.
For CACTCTAG, the “PBM E-score” value was -0.111.
With CCCGGAGG the “PBM E-score” value was -0.379.
AGTCCAGG was tested, and the “PBM E-score” value was -0.286.
In the case of CAACCGCG, the “PBM E-score” value was 0.219.
With AACAAGAT the “PBM E-score” value was 0.0327.
CGATGCAC was tested, and the “PBM E-score” value was -0.0077.
For CTATCTAA, the “PBM E-score” value was 0.0687.
With GCAGGCAA the “PBM E-score” value was -0.0145.
With AAATCAAT the “PBM E-score” value was 0.158.
For CGGCCCCG, the “PBM E-score” value was 0.122.
In the case of AGGGTTAC, the “PBM E-score” value was -0.126.
In the case of GCGGACGC, the “PBM E-score” value was 0.0304.
CCCATTGC was tested, and the “PBM E-score” value was -0.0165.
For AACGCGCC, the “PBM E-score” value was 0.361.
For AAATAGTT, the “PBM E-score” value was 0.0871.
In the case of CAAACATC, the “PBM E-score” value was 0.0532.
With ACAGGTAC the “PBM E-score” value was -0.147.
For TATCAGGA, the “PBM E-score” value was 0.147.
ATGGTAAG was tested, and the “PBM E-score” value was -0.0201.
For GAAATTCC, the “PBM E-score” value was -0.0721.
In the case of ACCTACAA, the “PBM E-score” value was 0.0363.
In the case of CTCGACTC, the “PBM E-score” value was -0.0905.
GCGCTCAA was tested, and the “PBM E-score” value was -0.0528.
In the case of CACCCTAA, the “PBM E-score” value was -0.0997.
CCTCCCGA was tested, and the “PBM E-score” value was -0.195.
CTACCCGC was tested, and the “PBM E-score” value was -0.018.
In the case of GAACGATC, the “PBM E-score” value was -0.0803.
For TCACTGGA, the “PBM E-score” value was -0.151.
In the case of GTCTGTAA, the “PBM E-score” value was 0.131.
In the case of ATCACTGC, the “PBM E-score” value was 0.208.
For CGCCTCCA, the “PBM E-score” value was 0.116.
ACAGTTCA was tested, and the “PBM E-score” value was -0.021.
In the case of GGATGGAC, the “PBM E-score” value was -0.244.
CATTCTGA was tested, and the “PBM E-score” value was 0.0181.
In the case of ATACGCAT, the “PBM E-score” value was 0.192.
In the case of ATATGCTC, the “PBM E-score” value was -0.0953.
For TTCTGCAA, the “PBM E-score” value was 0.187.
ACCTAGTA was tested, and the “PBM E-score” value was -0.3.
For AAGATAAG, the “PBM E-score” value was 0.141.
CACGGCGG was tested, and the “PBM E-score” value was 0.417.
In the case of CTATACGA, the “PBM E-score” value was 0.0887.
For ACCTATCA, the “PBM E-score” value was -0.106.
In the case of AATCATCT, the “PBM E-score” value was 0.0489.
For CACGCATG, the “PBM E-score” value was -0.0816.
AGATCGTG was tested, and the “PBM E-score” value was -0.0646.
AAGGCCCA was tested, and the “PBM E-score” value was -0.127.
In the case of CCTGGTCA, the “PBM E-score” value was -0.275.
For GGTCCCAA, the “PBM E-score” value was -0.186.
For CGACTGGA, the “PBM E-score” value was -0.104.
With AGACCTGC the “PBM E-score” value was -0.155.
In the case of AGTCTGCC, the “PBM E-score” value was -0.0863.
In the case of AACCGAAA, the “PBM E-score” value was 0.138.
In the case of AAGACTTA, the “PBM E-score” value was -0.233.
For CCCCCAGC, the “PBM E-score” value was -0.433.
In the case of CATACCGA, the “PBM E-score” value was 0.0392.
For CTGAGTCA, the “PBM E-score” value was 0.0843.
